Assay results as given in the supplement of paper PMC12889115.
The other results are listed elsewhere or left out. Many values rest on one well or one pass, so single values are uncertain.

tested on: Salmonella enterica serovar Typhimurium SL1344; test: bacterial growth OD600 after 18 h in MHB with 0.5 µg/mL polymyxin B; higher = more bacterial growth (less inhibition); settings: 25 µM; polymyxin B 0.5 µg/mL; system: broth
Experimental: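 Secondary screen of the 553 primary hits at 25 µM. (i) S. Typhimurium SL1344 grown in Mueller-Hinton broth with 0.5 µg/mL polymyxin B, OD600 read after 18 h. (ii) SAFIRE assay: RAW 264.7 macrophages infected with S. Typhimurium sifB::gfp (MOI 30); compound added 2 h post-infection; cells fixed at 18 h; GFP-positive pixel fraction per macrophage imaged by confocal microscopy and expressed as % of DMSO control.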
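Further: polymyxin B level opens the outer membrane while sparing the inner membrane, with novobiocin wells as reference growth inhibitor.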

Compound	bacterial growth OD600
CCC1CN(Cc2sccc2C)Cc2cc(OC)ccc2O1 (stereo not given)	0.172
CN(Cc1cccnc1)C(=O)C1(N2CCCCC2)Cc2ccccc2C1	0.003
CCc1ccc(CN(C)c2nncc(-c3cccc(F)c3)n2)cc1	-0.005
CCC(Nc1nc2nonc2nc1N1CCOCC1)c1cccs1 (stereo not given)	0
O=C(CCN1Cc2ccccc2OC(c2ccccc2)C1)NCc1cc(-c2ccccc2)[nH]n1 (stereo not given)	-0.004
COc1ccc2c(c1)OC(C)CN(C(=O)/C(F)=C/c1ccccc1)C2 (stereo not given)	-0.006
Cc1cccc2nc(CN(C)c3nncc(-c4ccc(Cl)cc4)n3)[nH]c12	0
CN(C(=O)CC1(c2ccccc2Cl)CC(=O)N(C2CCCC2)C1=O)C(C1CC1)C1CC1 (stereo not given)	0
CCOC(=O)C1(CCCc2ccccc2)CCN(C(=O)c2ccc(OC)o2)CC1	-0.001
CN(CCc1ccccc1)C(=O)CC1(c2ccccc2)CC(=O)N(Cc2ccc3c(c2)OCO3)C1=O (stereo not given)	-0.003
O=C(Nc1ccc(-c2cccc(F)c2)cc1)C1CCCN(C(=O)Cc2ccccn2)C1 (stereo not given)	0.001
O=C(CC1(c2ccccc2)CC(=O)N(Cc2ccncc2)C1=O)N(Cc1ccccc1)CC1CC1 (stereo not given)	0.531
Cc1c(C(=O)NCCCc2ccncc2)sc2ncnc(N3CCCCCCC3)c12	0.005
O=C(c1cn(Cc2ccc(F)cc2)nn1)N1CCCC1c1nc2ccccc2s1 (stereo not given)	0.299
CCCCn1c(CN2CCCCC2c2ccc(F)cc2)cnc1S(=O)(=O)CC (stereo not given)	0.002
